Results published in the supplement of paper PMC8728848.
This is one part of the list.

How the values were obtained:
Test in all cases: glycan array binding signal (z-score within array); higher = stronger binding
Details in all cases: glycan notation: IUPAC condensed, linker removed
[1] = biological target: Fuc(a1-3)[Gal(b1-4)]GlcNAc6S
Outline: (§1)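 Glycan array data came from 3228 arrays in the Consortium for Functional Glycomics database, and only arrays with an available protein sequence were kept. Glycan names were put into IUPAC-condensed notation, and columns mapping to the same glycan were averaged. The binding signal is a within-array Z-score, averaged across arrays of one protein sequence run at different concentrations or buffers and across linkers. A negative Z-score can be read as non-binding.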

[2] = biological target: Fuc(a1-3)[Gal3S(b1-4)]Glc
Outline: as §1

[3] = biological target: Fuc(a1-3)[Gal3S(b1-4)]GlcNAc
Outline: as §1

[4] = biological target: Fuc(a1-3)[Gal3S(b1-4)]GlcNAc6S
Outline: as §1

[5] = biological target: Fuc(a1-3)[GalNAc(b1-4)]GlcNAc
Outline: as §1

[6] = biological target: Fuc(a1-3)[GalNAc(b1-4)]GlcNAc6S
Outline: as §1

[7] = biological target: Fuc(a1-4)GlcNAc
Outline: as §1

[8] = biological target: Fuc(b1-3)GlcNAc
Outline: as §1

[9] = biological target: Gal(a1-2)Gal
Outline: as §1

[10] = biological target: Gal(a1-3)Gal
Outline: as §1

[11] = biological target: Gal(a1-3)Gal(b1-3)GlcNAc
Outline: as §1

[12] = biological target: Gal(a1-3)Gal(b1-3)GlcNAc(b1-2)Man
Outline: as §1

[13] = biological target: Gal(a1-3)Gal(b1-3)GlcNAc(b1-2)Man(a1-3)[Gal(a1-3)Gal(b1-3)GlcNAc(b1-2)Man(a1-6)]Man(b1-4)GlcNAc(b1-4)GlcNAc
Outline: as §1

[14] = biological target: Gal(a1-3)Gal(b1-3)GlcNAc(b1-3)GalNAc
Outline: as §1

[15] = biological target: Gal(a1-3)Gal(b1-3)GlcNAc(b1-6)GalNAc
Outline: as §1

[16] = biological target: Gal(a1-3)Gal(b1-3)[Fuc(a1-4)]GlcNAc(b1-2)Man(a1-3)[Gal(a1-3)Gal(b1-3)[Fuc(a1-4)]GlcNAc(b1-2)Man(a1-6)]Man(b1-4)GlcNAc(b1-4)GlcNAc
Outline: as §1

[17] = biological target: Gal(a1-3)Gal(b1-4)Glc
Outline: as §1

[18] = biological target: Gal(a1-3)Gal(b1-4)GlcNAc
Outline: as §1

[19] = biological target: Gal(a1-3)Gal(b1-4)GlcNAc(b1-2)Man
Outline: as §1

[20] = biological target: Gal(a1-3)Gal(b1-4)GlcNAc(b1-2)Man(a1-3)[Gal(a1-3)Gal(b1-4)GlcNAc(b1-2)Man(a1-6)]Man(b1-4)GlcNAc(b1-4)GlcNAc
Outline: as §1

[21] = biological target: Gal(a1-3)Gal(b1-4)GlcNAc(b1-3)GalNAc
Outline: as §1

[22] = biological target: Gal(a1-3)Gal(b1-4)GlcNAc(b1-6)GalNAc
Outline: as §1

[23] = biological target: Gal(a1-3)Gal(b1-4)[Fuc(a1-3)]GlcNAc
Outline: as §1

[24] = biological target: Gal(a1-3)Gal(b1-4)[Fuc(a1-3)]GlcNAc(b1-2)Man(a1-3)[Gal(a1-3)Gal(b1-4)[Fuc(a1-3)]GlcNAc(b1-2)Man(a1-6)]Man(b1-4)GlcNAc(b1-4)GlcNAc
Outline: as §1

[25] = biological target: Gal(a1-3)GalNAc
Outline: as §1

[26] = biological target: Gal(a1-3)[Gal(a1-4)]Gal(b1-4)GlcNAc
Outline: as §1

[27] = biological target: Gal(a1-4)Gal(b1-3)GlcNAc(b1-2)Man(a1-3)[Gal(a1-4)Gal(b1-3)GlcNAc(b1-2)Man(a1-6)]Man(b1-4)GlcNAc(b1-4)GlcNAc
Outline: as §1

[28] = biological target: Gal(a1-4)Gal(b1-4)Glc
Outline: as §1

[29] = biological target: Gal(a1-4)Gal(b1-4)GlcNAc
Outline: as §1

[30] = biological target: Gal(a1-4)Gal(b1-4)GlcNAc(b1-2)Man(a1-3)[Gal(a1-4)Gal(b1-4)GlcNAc(b1-2)Man(a1-6)]Man(b1-4)GlcNAc(b1-4)GlcNAc
Outline: as §1

[31] = biological target: Gal(a1-4)Gal(b1-4)GlcNAc(b1-3)Gal(b1-4)Glc
Outline: as §1

[32] = biological target: Gal(a1-4)GlcNAc
Outline: as §1

[33] = biological target: Gal(a1-6)Glc
Outline: as §1

[34] = biological target: Gal(b1-2)Gal
Outline: as §1

[35] = biological target: Gal(b1-3)Gal
Outline: as §1

[36] = biological target: Gal(b1-3)Gal(b1-4)GlcNAc
Outline: as §1

[37] = biological target: Gal(b1-3)GalNAc
Outline: as §1

[38] = biological target: Gal(b1-3)GalNAc(a1-3)[Fuc(a1-2)]Gal(b1-4)Glc
Outline: as §1

[39] = biological target: Gal(b1-3)GalNAc(a1-3)[Fuc(a1-2)]Gal(b1-4)GlcNAc
Outline: as §1

[40] = biological target: Gal(b1-3)GalNAc(b1-3)Gal
Outline: as §1

[41] = biological target: Gal(b1-3)GalNAc(b1-3)Gal(a1-4)Gal(b1-4)Glc
Outline: as §1

[42] = biological target: Gal(b1-3)GalNAc(b1-4)Gal(b1-4)Glc
Outline: as §1

[43] = biological target: Gal(b1-3)GalNAc(b1-4)[Neu5Ac(a2-3)]Gal(b1-4)Glc
Outline: as §1

[44] = biological target: Gal(b1-3)GlcNAc
Outline: as §1

[45] = biological target: Gal(b1-3)GlcNAc(a1-3)Gal(b1-4)GlcNAc
Outline: as §1

B1: ECA (Erythrina cristagalli), P83410 (protein)
chain: VETISFSFSEFEPGNDNLTLQGAALITQSGVLQLTKINQNGMPAWDSTGRTLYTKPVHMWDSTTGTVASFETRFSFSIEQPYTRPLPADGLVFFMGPTKSKPAQGYGYLGVFNNSKQDNSYQTLAVEFDTFSNPWDPPQVPHIGIDVNSIRSIKTQPFQLDNGQVANVVIKYDAPSKILHVVLVYPSSGAIYTIAEIVDVKQVLPDWVDVGLSGATGAQRDAAETHDVYSWSFQASLPE
[1]
  glycan array binding signal (z-score): -0.02
[2]
  glycan array binding signal (z-score): -0.283
[3]
  glycan array binding signal (z-score): -0.127
[4]
  glycan array binding signal (z-score): 0.476
[5]
  glycan array binding signal (z-score): -0.226
[6]
  glycan array binding signal (z-score): 0.062
[7]
  glycan array binding signal (z-score): -0.286
[8]
  glycan array binding signal (z-score): -0.187
[9]
  glycan array binding signal (z-score): -0.302
[10]
  glycan array binding signal (z-score): -0.243
[11]
  glycan array binding signal (z-score): -0.26
[12]
  glycan array binding signal (z-score): -0.29
[13]
  glycan array binding signal (z-score): 0.504
[14]
  glycan array binding signal (z-score): -0.285
[15]
  glycan array binding signal (z-score): -0.329
[16]
  glycan array binding signal (z-score): 0.425
[17]
  glycan array binding signal (z-score): -0.362
[18]
  glycan array binding signal (z-score): -0.277
[19]
  glycan array binding signal (z-score): -0.517
[20]
  glycan array binding signal (z-score): -0.041
[21]
  glycan array binding signal (z-score): -0.544
[22]
  glycan array binding signal (z-score): -0.319
[23]
  glycan array binding signal (z-score): -0.129
[24]
  glycan array binding signal (z-score): 10.5
[25]
  glycan array binding signal (z-score): -0.144
[26]
  glycan array binding signal (z-score): -0.103
[27]
  glycan array binding signal (z-score): 0.58
[28]
  glycan array binding signal (z-score): -0.224
[29]
  glycan array binding signal (z-score): -0.173
[30]
  glycan array binding signal (z-score): -0.264
[31]
  glycan array binding signal (z-score): -0.368
[32]
  glycan array binding signal (z-score): -0.291
[33]
  glycan array binding signal (z-score): -0.217
[34]
  glycan array binding signal (z-score): -0.137
[35]
  glycan array binding signal (z-score): -0.296
[36]
  glycan array binding signal (z-score): -0.414
[37]
  glycan array binding signal (z-score): -0.392
[38]
  glycan array binding signal (z-score): -0.784
[39]
  glycan array binding signal (z-score): -0.421
[40]
  glycan array binding signal (z-score): -0.426
[41]
  glycan array binding signal (z-score): -0.259
[42]
  glycan array binding signal (z-score): -0.205
[43]
  glycan array binding signal (z-score): -0.291
[44]
  glycan array binding signal (z-score): -0.27
[45]
  glycan array binding signal (z-score): -0.509
